# Where “and” joins values, the source holds several entries; their conditions need not be identical. Identical values can stand only once. This is one part of the list. Shown are side measurements of this screen, not its main read-out; they come without a call. For some assays here: Most of these compounds were active or inconclusive in the main read-out, so they are no random draw. Words in brackets tell the shape of the fitted curve; partial curves, single points and poor fits give uncertain potencies.
# Experiments:
# [1] = target: Catechol O-methyltransferase (Homo sapiens) (UniProt P21964); experiment: Confirmatory Screen for Target Class Profiling of Small Molecule Inhibitors of Methyltransferases (AID 1745852); details: MTase-Glo luminescence, SAH detection, recombinant enzyme; measured here: COMT inhibition potency;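 also: inhibitor potency for blocking SAH production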
# [2] = target: Histamine N-methyltransferase (Homo sapiens) (UniProt P50135); experiment: as above; details: MTase-Glo luminescence, SAH detection, recombinant enzyme; measured here: HNMT inhibition potency
# [3] = target: Phenylethanolamine N-methyltransferase (Homo sapiens) (UniProt P11086); experiment: as above; details: MTase-Glo luminescence, SAH detection, recombinant enzyme; measured here: PNMT inhibition potency
# [4] = target: Nicotinamide N-methyltransferase (Homo sapiens) (UniProt P40261); experiment: as above; details: MTase-Glo luminescence, SAH detection, recombinant enzyme; measured here: NNMT inhibition potency
# [5] = qHTS drug screen for cell cycle checkpoint inhibitors in PARPi-resistant BRCA-mutant ovarian cancer cell lines. (AID 1963452); details: PEO1/OlaR viability, CellTiter-Glo luminescence, 96 h
# Summary of the method: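 PEO1, PEO4 and PEO1/OlaR ovarian cancer cells, 600 per well, exposed 96 h at 37C to a dilution series. Viability read by CellTiter-Glo luminescence, normalized to DMSO and empty wells; activity summarized as Z-AUC.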
# [6] = qHTS for identification of novel therapeutic agents for treatment of microphthalmiaassociated transcription factor (MiT) renal cell carcinoma (RCC) (AID 1963991); details: CellTiter-Glo, 48 h; for z-score: stronger effect = lower value;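 as to z-score: curves scaled with 100% = DMSO viability and 0% = empty wells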
# Summary of the method: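 UOK109/UOK124/UOK145 (TFE3 fusions, three partners); 500 cells/well; MIPE v4.0, 1912 cpds, 11 conc.; 48 h, 37 C; CellTiter-Glo, 15 min RT; lum. Norm.: DMSO 100%, empty 0%.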
# [7] = qHTS Validation Assay to Find Inhibitors of Chronic Active B-Cell Receptor Signaling (AID 485345); details: ABC-DLBCL cells, chronic BCR signaling reporter
# Summary of the method: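 Read-out: ratio of filter-corrected green (IkappaBalpha fusion) to red (native) luciferase signal in doxycycline-induced TMD8 cells after 4 h at 37C. Titration spanned 46 uM–3 nM; Data were normalised to basal cells and 10 uM MG-132 wells.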
# [8] = measured here: PEO1 parental viability
# [9] = TFE3-RCC viability, measured here: UOK124 cell viability
# [10] = TFE3-RCC viability, measured here: UOK145 cell viability
# [11] = TFE3-RCC UOK109 viability, measured here: UOK109 Z-AUC
# [12] = TFE3-RCC viability, measured here: UOK124 Z-AUC
# [13] = TFE3-RCC viability, measured here: UOK145 Z-AUC
# Tags tell the direction and shape of the fitted curve.
# Chain of UniProt P40261 (P40261 whole entry, looked up): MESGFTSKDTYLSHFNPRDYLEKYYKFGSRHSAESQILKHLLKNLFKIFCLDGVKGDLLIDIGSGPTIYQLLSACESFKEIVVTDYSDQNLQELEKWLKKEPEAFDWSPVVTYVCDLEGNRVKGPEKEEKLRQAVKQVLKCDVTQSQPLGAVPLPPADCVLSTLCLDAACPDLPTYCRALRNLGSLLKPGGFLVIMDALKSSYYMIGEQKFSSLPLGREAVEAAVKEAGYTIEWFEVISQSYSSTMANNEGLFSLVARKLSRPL
# Chain of UniProt P11086 (P11086 whole entry, looked up): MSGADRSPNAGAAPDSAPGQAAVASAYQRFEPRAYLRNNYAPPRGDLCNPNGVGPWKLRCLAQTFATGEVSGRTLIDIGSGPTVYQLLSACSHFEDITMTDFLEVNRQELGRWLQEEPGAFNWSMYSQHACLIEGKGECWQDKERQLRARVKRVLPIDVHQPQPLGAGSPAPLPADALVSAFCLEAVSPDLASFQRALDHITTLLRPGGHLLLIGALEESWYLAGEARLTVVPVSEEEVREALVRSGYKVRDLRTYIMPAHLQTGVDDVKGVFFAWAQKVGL
# Chain of UniProt P21964 (P21964 whole entry, looked up): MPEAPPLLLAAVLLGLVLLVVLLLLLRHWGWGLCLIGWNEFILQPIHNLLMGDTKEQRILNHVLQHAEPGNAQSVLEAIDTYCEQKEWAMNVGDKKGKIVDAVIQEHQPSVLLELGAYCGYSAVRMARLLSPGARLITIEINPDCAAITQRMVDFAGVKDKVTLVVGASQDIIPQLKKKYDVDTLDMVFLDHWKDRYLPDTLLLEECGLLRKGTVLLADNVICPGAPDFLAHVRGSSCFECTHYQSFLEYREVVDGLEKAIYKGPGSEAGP
# Chain of UniProt P50135 (P50135 whole entry, looked up): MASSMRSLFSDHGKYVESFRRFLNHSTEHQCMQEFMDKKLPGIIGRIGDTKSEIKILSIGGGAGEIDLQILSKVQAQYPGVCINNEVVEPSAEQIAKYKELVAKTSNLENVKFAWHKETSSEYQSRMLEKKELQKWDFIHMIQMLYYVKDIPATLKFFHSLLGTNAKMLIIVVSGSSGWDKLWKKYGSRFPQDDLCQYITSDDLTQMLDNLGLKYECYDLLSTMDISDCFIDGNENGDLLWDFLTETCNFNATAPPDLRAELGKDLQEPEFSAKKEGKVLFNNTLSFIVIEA
structure (smiles),measurement,setting,value
CC(C)c1nccn1CCCNc1nc(-c2ccncc2)nc2c1cnn2C,IC50,[1],"24.1 µM [falling, partial curve, poor fit]"
same,IC50,[2],"13.6 µM [falling, partial curve]"
same,IC50,[3],"21.5 µM [falling, partial curve]"
C=Cc1cc(O)cc2nc(-c3ccc(O)c(F)c3)oc12,IC50,[1],"24.1 µM [falling, partial curve]"
same,IC50,[2],"27.1 µM [falling, partial curve]"
same,IC50,[4],"27.1 µM [falling, single point]"
same,IC50,[3],"27.1 µM [falling, partial curve]"
same,AC50,[5]; measured here: PEO4 viability,"8.71 µM [falling, partial curve]"
CC(=O)OC1CC(=O)C2(C)C3CC4=C(OC(C)CC4=O)OC3(C)CCC2C1(C)C (stereo unspecified),IC50,[1],"10.5 µM [falling, partial curve]"
same,IC50,[4],"0.937 µM [falling, full curve]"
COc1cc2ncnc(Nc3ccc(F)c(Cl)c3)c2cc1NC(=O)/C=C/CN1CCCCC1,IC50,[1],"21.5 µM [falling, partial curve]"
same,IC50,[2],"17.1 µM [falling, partial curve]"
same,IC50,[4],"24.1 µM [falling, partial curve]"
same,IC50,[3],"24.1 µM [falling, partial curve]"
same,AC50,[5]; [8],"4.36 µM [falling, partial curve]"
same,AC50,[5]; measured here: PEO4 viability,"4.9 µM [falling, full curve]"
O=C(NCc1ccc2c(c1)OCO2)c1sc(=S)n2c1[nH]c(=O)c1ccccc12,IC50,[1],"27.1 µM [falling, partial curve]"
same,IC50,[2],"34.1 µM [falling, single point]"
same,IC50,[3],"27.1 µM [falling, partial curve]"
OCCCNc1cc(-c2ccnc(Nc3cccc(Cl)c3)n2)ccn1,IC50,[1],"7.64 µM [falling, full curve]"
same,IC50,[2],"9.61 µM [falling, full curve]"
same,IC50,[4],"10.8 µM [falling, full curve]"
same,IC50,[3],"8.57 µM [falling, full curve]"
same,AC50,[5]; [8],"0.155 µM [falling, full curve]"
same,AC50,[5]; measured here: PEO4 viability,"0.245 µM [falling, full curve, poor fit]"
same,AC50,[6]; [9],"0.148 µM [falling, full curve]"
same,AC50,[6]; [10],"0.0743 µM [falling, full curve]"
Cn1c(=O)n(C)c2cc(S(=O)(=O)Nc3ccc(-c4nnc(-c5ccccc5)o4)c(Cl)c3)ccc21,IC50,[1],"24.1 µM [falling, partial curve, poor fit]"
same,IC50,[4],"24.1 µM [falling, partial curve, poor fit]"
C[C@@H](Oc1cc(-c2cnn(C3CCNCC3)c2)cnc1N)c1c(Cl)ccc(F)c1Cl,IC50,[1],"21.5 µM [falling, partial curve] and 24.1 µM [falling, partial curve]"
same,IC50,[2],"21.5 µM [falling, partial curve]"
same,IC50,[4],"24.1 µM [falling, partial curve] and 21.5 µM [falling, partial curve]"
same,IC50,[3],"24.1 µM [falling, partial curve]"
same,AC50,[5]; [8],"17.4 µM [falling, single point]"
same,AC50,[5]; measured here: PEO4 viability,"8.71 µM [falling, partial curve]"
same,z-score,[6]; [11],-0.0469
same,z-score,[6]; [12],-0.357
same,AC50,[6]; [9],"18.7 µM [falling, partial curve]"
same,z-score,[6]; [13],0.302
same,AC50,[6]; [10],"23.5 µM [falling, partial curve]"
COc1cc2c(Nc3ccc(Cl)c(Cl)c3F)ncnc2cc1OCC1C[C@@H]2CN(C)C[C@@H]2C1 (stereo partly specified),IC50,[1],"19.2 µM [falling, partial curve]"
same,IC50,[2],"4.82 µM [falling, full curve]"
same,IC50,[4],"21.5 µM [falling, partial curve]"
same,IC50,[3],"21.5 µM [falling, partial curve]"
same,AC50,[5]; [8],"4.36 µM [falling, partial curve]"
same,AC50,[5]; measured here: PEO4 viability,"6.16 µM [falling, partial curve]"
CCN1CCC(n2cc(CNc3cc(Cl)c4ncc(C#N)c(Nc5ccc(F)c(Cl)c5)c4c3)nn2)CC1,IC50,[1],"8.57 µM [falling, full curve]"
same,IC50,[2],"1.08 µM [falling, full curve]"
same,IC50,[4],"10.8 µM [falling, full curve]"
same,IC50,[3],"9.61 µM [falling, full curve]"
same,AC50,[5]; [8],"2.75 µM [falling, full curve, poor fit]"
same,AC50,[5]; measured here: PEO4 viability,"1.74 µM [falling, full curve, poor fit]"
same,z-score,[6]; [11],-0.438
same,z-score,[6]; [12],0.254
same,AC50,[6]; [9],"23.5 µM [falling, partial curve]"
same,z-score,[6]; [13],0.479
same,AC50,[6]; [10],"23.5 µM [falling, partial curve]"
C=CC(=O)Nc1ccc2ncnc(Nc3cccc(Br)c3)c2c1,IC50,[1],"17.1 µM [falling, partial curve]"
same,IC50,[2],"21.5 µM [falling, partial curve]"
same,IC50,[4],"24.1 µM [falling, partial curve]"
same,IC50,[3],"15.2 µM [falling, partial curve]"
same,AC50,[5]; [8],"6.16 µM [falling, partial curve]"
same,AC50,[5]; measured here: PEO4 viability,"3.89 µM [falling, partial curve]"
COc1cc(OC)c(/C=C2/C(=O)Nc3ccccc32)c(OC)c1,AC50,[7]; measured here: CBG/CBR ratio read-out,"16.4 µM [falling, partial curve]"
same,AC50,[7]; measured here: CBR control luciferase (viability counter),"2.06 µM [rising, partial curve]"
same,IC50,[1],"43.2 µM [falling, partial curve, poor fit]"
same,IC50,[2],"27.3 µM [falling, partial curve, poor fit]"
same,IC50,[4],"27.3 µM [falling, partial curve, poor fit]"
same,IC50,[3],"27.3 µM [falling, single point]"
CC1(COc2ccc3c(c2)ncn3-c2ccc3cccc(N4CCC(N)CC4)c3n2)COC1,IC50,[1],"21.5 µM [falling, partial curve]"
same,IC50,[2],"15.2 µM [falling, partial curve]"
same,IC50,[4],"27.1 µM [falling, partial curve, poor fit]"
same,IC50,[3],"24.1 µM [falling, partial curve]"
same,AC50,[5]; [8],"13.8 µM [falling, partial curve]"
same,AC50,[5]; measured here: PEO4 viability,"12.3 µM [falling, partial curve]"
same,z-score,[6]; [11],-2.6
same,z-score,[6]; [12],-0.544
same,AC50,[6]; [9],"16.6 µM [falling, partial curve]"
same,z-score,[6]; [13],-3.76
same,AC50,[6]; [10],"0.469 µM [falling, partial curve]"
CC(C)c1c2cc(-c3ccnc(NC4CCC(NC5CCOCC5)CC4)n3)ccc2nn1C (stereo unspecified),IC50,[1],"30.4 µM [falling, partial curve, poor fit]"
same,IC50,[2],"42.9 µM [falling, single point]"
same,IC50,[3],"30.4 µM [falling, partial curve, poor fit]"
same,AC50,[5]; [8],"0.219 µM [falling, full curve]"
same,AC50,[5]; measured here: PEO4 viability,"0.174 µM [falling, full curve]"
O=C1COc2ccc(-c3cccc(O)c3)nc2CN1Cc1ccc(C(F)(F)F)cc1,IC50,[1],"49.5 µM [falling, single point]"
same,IC50,[2],"44.1 µM [falling, single point]"
same,IC50,[3],"35 µM [falling, partial curve]"
COc1cc2c(Nc3ccc(Cl)c(Cl)c3F)ncnc2cc1OCC1C[C@@H]2CN(C)C[C@H]2C1,IC50,[1],"19.2 µM [falling, partial curve]"
same,IC50,[2],"17.1 µM [falling, partial curve]"
same,IC50,[4],"21.5 µM [falling, partial curve]"
same,IC50,[3],"19.2 µM [falling, partial curve]"
same,AC50,[6]; [9],"11.8 µM [falling, partial curve]"
same,AC50,[6]; [10],"5.26 µM [falling, partial curve]"
CC(Oc1cc(-n2cnc3ccc(CN4CCN(C)CC4)cc32)sc1C(N)=O)c1ccccc1C(F)(F)F (stereo unspecified),IC50,[1],"21.5 µM [falling, partial curve]"
same,IC50,[2],"24.1 µM [falling, partial curve]"
same,IC50,[3],"21.5 µM [falling, partial curve]"
COc1ccc(-c2[nH]nc3ncc(C(=O)N4CCC(c5ccccc5)CC4)nc23)c(C)c1,IC50,[1],"22.1 µM [falling, partial curve]"
same,IC50,[2],"22.1 µM [falling, partial curve]"
same,IC50,[3],"17.5 µM [falling, partial curve]"
COc1cc2ncnc(Nc3ccc(F)c(Cl)c3)c2cc1OCCCN1CCOCC1,IC50,[1],"21.5 µM [falling, partial curve]"
same,IC50,[2],"19.2 µM [falling, partial curve]"
same,IC50,[4],"27.1 µM [falling, partial curve]"
same,IC50,[3],"21.5 µM [falling, partial curve]"
same,z-score,[6]; [11],-3.16
same,z-score,[6]; [12],-0.781
same,AC50,[6]; [9],"27 µM [falling, partial curve]"
same,z-score,[6]; [13],-0.973
same,AC50,[6]; [10],"6.79 µM [falling, full curve]"
Cn1cnc(CN2CCNc3cc(Nc4ccccc4)ncc3C2)c1,IC50,[2],"9.87 µM [falling, partial curve]"
CC1CCN(CCCNC(=O)CCc2nnc3n(Cc4ccc(F)cc4)c(=O)c4ccccc4n23)CC1,IC50,[2],"7.64 µM [falling, partial curve]"
Oc1ccc(NCCN2CCCC2)cc1,IC50,[2],"44.1 µM [falling, partial curve]"
N#Cc1cnc(N2CC3CCC(C2)N3CC(F)(F)F)s1,IC50,[2],"31.2 µM [falling, partial curve]"
CCCCc1nc2cc(/C=C/C(=O)NO)ccc2n1CCN(CC)CC,IC50,[1],"19.3 µM [falling, partial curve, poor fit]"
same,AC50,[5]; [8],"3.09 µM [falling, full curve]"
same,AC50,[5]; measured here: PEO4 viability,"1.95 µM [falling, full curve]"

# Source: PubChem BioAssay (NCATS)
